The results in this text go back to publication PMC12040169 (PLOS Biology, 2025).

Structures are written as SMILES. The list shows a part of the results.

The subject of the experiment is T1, C. trachomatis L2/434/Bu expressing GFP (CTL2-GFP).
T1 construct: L2/434/Bu GFP intracellular growth in HeLa cells
Further details: species or system HeLa; C. trachomatis total inclusion area by high-content imaging, normalised to DMSO. To be noted: total inclusion area; 28.5 h, 10 µM; inhibitor. The method, boiled down:
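Host cell viability was gauged from Hoechst-stained nuclei counts, while chlamydial growth was taken from total inclusion area and inclusion number per well. Cells were fixed and imaged by high-content microscopy once bulk GFP and resorufin fluorescence had been measured.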
Consider `O=C(c1ccccc1)c1ccc(OCC(O)CN2CCN(c3ccccn3)CC2)cc1` (stereo not drawn) [CBK266513], for which the “% of control remaining” value was 102.598. Take `CN(Cc1ccccc1)c1nccnc1-c1ccccc1F` [CBK037410]: the “% of control remaining” value is on record as 72.8716.

`C=CCNC(=O)N[C@H]1[C@H](O)[C@@H](Oc2ccccc2)[C@@H]2OC[C@H]1O2` [CBK288812]: the “% of control remaining” value was found to be 100.196. As to `O=C1NCCCC12CCN(Cc1ccc3ncccc3c1)CC2` [CBK284825], the “% of control remaining” value is recorded as 89.8251. `CCn1ccc(C(=O)NC(c2cncc(OC)c2)[C@H]2C[C@@H](O)C2)cc1=O` (stereo partly drawn) [CBK307696]: the “% of control remaining” value was 75.3754. For the compound `Cc1ccc2nsnc2c1NC(=O)COc1ccc([N+](=O)[O-])cc1` [CBK033705], the “% of control remaining” value was 118.658.

For the compound `O=C(Nc1ncnc2c1nc(OCc1ccccc1)n2C1CC(O)C(CO)O1)c1ccccc1` (stereo not drawn) [CBK201220], the “% of control remaining” value is given as 96.6588. For the compound `Cc1ccc(S(=O)(=O)Oc2cccc(C(c3c(C)n[nH]c3O)c3c(C)n[nH]c3O)c2)cc1` [CBK265016], the “% of control remaining” value came to 100.215. As for `O=C(CSc1ncnc2ccccc12)N(Cc1ccccc1F)C1CC1` [CBK295610], the figure is 89.8022; as for `O=C(Cn1ccc2ccnc(-c3cccs3)c21)N1CCC(O)CC1` [CBK284736], 105.492. On to `[O-][n+]1c2c([n+]([O-])c3c1CCCC3)CCCCC2` [CBK263586], for which the “% of control remaining” value worked out at 106.404. In the case of `O=C(NCCN1CCOCC1)C1CCN(Cc2ccccc2O)CC1` [CBK264324], the “% of control remaining” value was determined as 102.991. Consider `CCOC(=O)Cc1csc(SCC(=O)N2CCc3ccccc32)n1` [CBK306190], for which the “% of control remaining” value came to 58.675.

For the compound `O=C(NCc1ccncc1)c1nccnc1-c1ccc(COc2ccccc2)cc1` [CBK050836], the “% of control remaining” value was found to be 94.2144. As for `CN(C)CCCNC(=O)c1cc(-c2ccc(Cl)cc2)[nH]n1` [CBK116564T], the figure is 108.054; as for `CS(=O)(=O)N1CC[C@H](c2nc3cc(Cl)ccc3o2)C1` [CBK289370], 91.3435. As for `O=c1oc2ccc(Cl)cc2n1C1CCN(Cc2ccco2)CC1` [CBK284342], the “% of control remaining” value turned out to be 74.1611.

Regarding `COc1ccccc1N1CCN(c2nccc3sc(S(=O)(=O)NCc4ccc(C(F)(F)F)c(F)c4)cc23)CC1` [CBK038270C], the “% of control remaining” value stood at 91.4125. As for `N#Cc1cccc(CN2CCCC3(CCN(C(=O)c4cc(F)c(F)cc4F)C3)C2)c1` (stereo not drawn) [CBK131993], the figure is 91.2913; as for `C=CCn1c(Cc2csc(NC(=O)c3ccc([N+](=O)[O-])c(C)c3)n2)n[nH]c1=S` [CBK295323], 116.451; as for `O=C(O)c1ccc(-c2ccc(/C=C/c3nc(O)c([N+](=O)[O-])c(=O)[nH]3)o2)cc1Cl` [CBK267354], 117.054.
